Reference: paper PMC8943206
Results are given in words; binding and its absence hold for the method and conditions named. For part of these data: Binding seen in cells or lysates may run through a third protein. Some binding calls cover weakened binding; strength is not graded here.

Protein sequences, listed by entry. Tags and fused reporters are not part of them.
UniProt Q15366: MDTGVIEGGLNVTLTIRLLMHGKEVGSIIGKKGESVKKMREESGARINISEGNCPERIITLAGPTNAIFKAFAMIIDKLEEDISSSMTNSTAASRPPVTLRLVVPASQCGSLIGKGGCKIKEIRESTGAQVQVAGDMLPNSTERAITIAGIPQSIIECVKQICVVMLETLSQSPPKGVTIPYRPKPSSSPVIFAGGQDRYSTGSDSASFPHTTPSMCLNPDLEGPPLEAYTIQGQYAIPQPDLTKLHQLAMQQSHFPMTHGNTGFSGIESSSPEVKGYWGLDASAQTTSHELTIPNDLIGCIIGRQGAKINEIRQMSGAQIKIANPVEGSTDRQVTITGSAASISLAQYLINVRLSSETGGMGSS
UniProt Q8N884: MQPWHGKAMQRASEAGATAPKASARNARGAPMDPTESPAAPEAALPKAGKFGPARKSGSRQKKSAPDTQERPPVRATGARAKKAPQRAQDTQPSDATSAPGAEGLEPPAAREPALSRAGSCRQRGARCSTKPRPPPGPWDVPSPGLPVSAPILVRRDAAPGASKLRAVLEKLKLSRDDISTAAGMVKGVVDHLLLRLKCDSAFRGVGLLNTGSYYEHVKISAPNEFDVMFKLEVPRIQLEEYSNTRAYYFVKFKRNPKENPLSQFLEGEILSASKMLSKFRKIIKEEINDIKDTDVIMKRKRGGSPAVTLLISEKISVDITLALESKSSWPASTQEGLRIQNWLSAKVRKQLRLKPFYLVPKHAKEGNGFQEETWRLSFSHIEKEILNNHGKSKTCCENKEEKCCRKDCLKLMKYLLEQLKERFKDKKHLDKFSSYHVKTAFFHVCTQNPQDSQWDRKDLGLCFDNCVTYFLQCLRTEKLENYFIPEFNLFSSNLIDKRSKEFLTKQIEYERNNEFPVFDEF
UniProt Q86WV6: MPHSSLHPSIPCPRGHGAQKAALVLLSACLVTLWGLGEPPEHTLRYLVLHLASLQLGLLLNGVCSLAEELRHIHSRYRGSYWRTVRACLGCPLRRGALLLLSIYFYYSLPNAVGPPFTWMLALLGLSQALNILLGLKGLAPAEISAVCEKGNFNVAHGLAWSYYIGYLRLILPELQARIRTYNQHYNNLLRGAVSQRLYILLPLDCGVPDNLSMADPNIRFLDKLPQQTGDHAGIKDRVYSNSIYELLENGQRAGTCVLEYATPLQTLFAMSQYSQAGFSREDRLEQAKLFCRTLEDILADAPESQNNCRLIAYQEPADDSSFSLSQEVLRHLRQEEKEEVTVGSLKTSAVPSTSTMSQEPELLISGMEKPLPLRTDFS

Columns and labels:
[1] = target: PCBP2 full-length (FL), transfected in HEK293T (tag not told) (human) (UniProt Q15366); assay: co-IP
[2] = target: GST-PCBP2 (human) (UniProt Q15366); assay: pull-down; purified cGAS-His incubated with GST-PCBP2 or GST-GFP, pulled down with glutathione-Sepharose beads; Western blot; both purified
[3] = target: PCBP2, endogenous in THP-1 (human (endogenous in THP-1)) (UniProt Q15366); assay: co-IP; endogenous; THP-1 cells with or without HT-DNA (2 μg/ml); PCBP2 antibody or control IgG, protein A/G beads; immunoblot
[4] = target: Flag-tagged PCBP2 (human) (UniProt Q15366); assay: co-IP

Substance | binding [1] | binding [3] | further results
cGAS, transfected in HEK293T (tag not told) (from UniProt Q8N884 1-522) (enzyme) | binds | – | –
cGAS-His (from UniProt Q8N884 1-522) (enzyme) | – | – | binding [2]: binds
cGAS, endogenous in THP-1 (from UniProt Q8N884 1-522) (enzyme) | – | binds | –
Myc-tagged cGAS (from UniProt Q8N884 1-522) (enzyme) | – | – | binding [4]: binds
STING, transfected in HEK293T (from UniProt Q86WV6 1-379) | no binding | – | –
STING, endogenous in THP-1 (from UniProt Q86WV6 1-379) | – | no binding | –
